Values marked as one replicate rest on one cluster of the flow cell; about a third of the high ones do not repeat.
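Note: ATP exposure 15 min at 22 °C before imaging.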

The subject of this series is ATP. The series can be described thus: switch fluorescence ratio, 500 uM ATP over buffer (Cy3 cluster intensity, sum of 5 cycles each) (fold (ratio)); higher = stronger signal-on switching upon ATP binding; sequences stand for … in TCGTCGGCAGCGTCAGATGTGTATAAGAGACAGTTTTTTTTTTTTTTTTTTTTTTTTT…TC. To be noted: aptamer strand: ATP DNA aptamer (quencher-CACCTGGGGGAGTATTGCGGAGGAAGG + anchor), 100 nM annealed; ATP concentration: 500 uM; one replicate. In outline:
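For every switch-domain sequence, the fluorescence ratio is the mean of per-cluster values, each being summed target-cycle Cy3 intensity over summed buffer-cycle Cy3 intensity. Clusters outside 100-1000 RFU were excluded. On a modified Illumina MiSeq flow-cell, the Cy3-labelled switching-strand clusters were annealed to 100 nM quencher-labelled ATP aptamer, imaged in selection buffer and then after 15 min with 500 uM ATP at 22 °C. Five such cycles were run, with NaOH stripping and re-annealing between them.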
As for CGACATAGGG, the switch fluorescence ratio worked out at 1.07.

With TGCCCACTTT, the switch fluorescence ratio was found to be 0.994. With ATGACGGTA, the switch fluorescence ratio was 1.02. As to GCTTGAAGAT, the switch fluorescence ratio was determined as 0.964. With ACGGTCCTGA the figure was 0.972; with GGATCAACTA, 1.05; with CTGAACACA, 0.99. With TCCAATTGGT the figure was 1.02. With CTGGATGATA the figure was 1.01; with CAGCTGCACG, 0.987; with ATCTGGCGT, 0.999. As for ATAAGGGG, the switch fluorescence ratio is 0.976. On to TAGTAGACGG, for which the switch fluorescence ratio was found to be 0.985. To TAATCAATAG belongs 1.06; to ATTAAGAACT, 0.977; to CAGGATTATC, 0.973. To TTGGCCAAGA belongs 1.03. To ATTCAATCAT belongs 1; to ATTCCAGGAG, 1.12. For TTGGCTAAAT, the switch fluorescence ratio was determined as 1.01. To TTACTCGGAT belongs 1.11; to GCAGTTTTG, 0.983; to ACAGGTACTC, 1.07. To TAAAGTATAG belongs 0.982; to AATAGGGTAC, 0.966. With TGTCGTAATG the figure was 0.979. In the case of AATCTGAATA, the switch fluorescence ratio was found to be 1.02.

For GCGCGGTATA, the switch fluorescence ratio turned out to be 1.01.

Regarding CTGGGCACGA, the switch fluorescence ratio worked out at 1.04. To GGATATTTT belongs 0.955; to CCCCGAGGAA, 1.06. To CACTCACTGC belongs 1.08; to GAACATCAAA, 1.02. To CCTCATCGGT belongs 1.22; to CGAATCGGCC, 1.01. In the case of CTGCGTTGCG, the switch fluorescence ratio came out at 0.989. To GGTTACCCTG belongs 0.988; to AGTGGTTGGA, 0.971; to GTTTTGTT, 1.01.

For the sequence GCTTGGAATT, the switch fluorescence ratio was 1.03.

As for GGGCAGGTTA, the switch fluorescence ratio was 1.04. To GCACTACTAG belongs 1.08; to GTATGGTATA, 1.03. With TGGTGGAATG the figure was 0.991.

As to TCTCTGGCTG, the switch fluorescence ratio is 1.04. On to GTGCCATAAG, for which the switch fluorescence ratio is 0.998. To GTTATATCC belongs 0.977; to TATCGATTGT, 1.06; to CTCCAGGGAC, 2.65. CGCATGCTTC: the switch fluorescence ratio amounted to 1.69. As to GTTTTCACTG, the switch fluorescence ratio was determined as 1.03. To CCTTGCCCTA belongs 1.07; to GCACGGTTAT, 0.993. To CTAGTTCTTT belongs 0.981; to TCGGTGTGTG, 0.958. With ACAGGCAGTG the figure was 1.04. As for CATCCTGCGC, the switch fluorescence ratio was 3.7. For GAGAATACCC, the switch fluorescence ratio stood at 1.07.

Take GTGCTGGGAG: the switch fluorescence ratio came out at 0.981. With AAAGTCTTAG the figure was 0.941; with TGTTACATCC, 1.06. With GCATATGAAT the figure was 1.03; with AATTCCTAAG, 1; with AGGGGCGAA, 0.989. To ATTAAAAAGA belongs 0.987; to ATTCAATAT, 1.03; to GATTTCCGTA, 0.955. ATATGAGAAT: the switch fluorescence ratio was determined as 0.978. To GCGAGAAGC belongs 1; to GCGGTGTG, 0.994. With CGTTCTACGC the figure was 1.11; with GTTTGGCCAC, 1.05; with TTCTCACTGT, 1. With CTTCTCAAAA the figure was 1.11. Regarding CCATGCAATT, the switch fluorescence ratio came out at 3.85.

For the sequence AGTCTGTCTG, the switch fluorescence ratio was 0.989. To GCTGTGTCTG belongs 0.964; to TAAAAGACTT, 1.01. For the sequence CCTGAATCGT, the switch fluorescence ratio worked out at 1.01.

In the case of CTCGCGTATA, the switch fluorescence ratio amounted to 1.35.

Turning to AGTAAACATC, the switch fluorescence ratio was 1.03. Turning to ACGTCTTCAG, the switch fluorescence ratio turned out to be 1.04.

Regarding AACGATGCGC, the switch fluorescence ratio worked out at 1.03.

ATAAAACATT: the switch fluorescence ratio is 0.974. ATTTTGACG: the switch fluorescence ratio was found to be 1.01. With CGAGCCGTTG the figure was 0.996; with GCTTCGTGGA, 1.03; with TTCCTGTATG, 1.01. With TAGGGTGCGA the figure was 1.01; with ACATCCCGAT, 1.04; with CGAGTGCGCG, 0.924. To AGAGCGCTTG belongs 1.01; to GTGTATGTGC, 0.936.

As for AAACACCGAT, the switch fluorescence ratio is 1.06. To GTGTTCGAT belongs 0.982; to TGTTTTTTA, 1.05; to CGCTAGTGTG, 1.02. Consider TGCTCACATG, for which the switch fluorescence ratio turned out to be 1.01. To ATTTTCTCAA belongs 0.995. With TGGGTCAGGG the figure was 1.03. With CATGTCGGCG the figure was 1.02. As for GGCCTCTACA, the switch fluorescence ratio came to 1.02. For TCCGTGTAGT, the switch fluorescence ratio turned out to be 1.03. To CAGTTGTGGC belongs 1.05; to TTTAAAGTTC, 1.01; to TCCTTGGTAA, 1.03. Turning to AATCGTCTAG, the switch fluorescence ratio turned out to be 1.

Take GGATTTGATC: the switch fluorescence ratio amounted to 1.03. With GGAACTCCCT the figure was 1.05; with ATGGTTTTCT, 0.983. To CACTGGCGCG belongs 1.03. To AGATTAACTT belongs 1.02; to GCGCTGGGTC, 0.968; to ATAAGAACT, 1.1.

With CTGGGCCAGT, the switch fluorescence ratio turned out to be 1.01. AGATAATCAG: the switch fluorescence ratio came to 0.941. ACGCGATCA: the switch fluorescence ratio turned out to be 1.12. To CGGACGTTGA belongs 1.11; to GGGTTCACTA, 0.984; to CAAACCGTAC, 2.4.
